# Hit rate of the full screen: of about 320,000 compounds, about 9,100 (2.8%) were called active. Inconclusive means that the source gave no clear call. Such entries were picked first, then a sample of the others. Calls follow the shape of the dose curve; as a rule, active = well fitted activation curve with a large enough effect; inconclusive = small, poorly fitted or top-dose-only effect; inactive = no such curve, though single readings can be large or run the other way. No potency is given beside an inconclusive call; the fits are too rough.
# Assay: qHTS Assay for Rab9 Promoter Activators; also: nearly all actives have a fitted effect of over 60% in size; as to activation, negative = inhibition: % of control where 0% means no effect
# Conditions: Huh7 Rab9 promoter-luciferase reporter, luminescence, 24 h; series mostly up to 9.22 µM; activation, negative = inhibition: at the top concentration
# How it was run: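 Using Huh7 cells stably transfected with Rab9 promoter–luciferase, compounds were incubated 24 h at 37 °C, 5% CO2; luciferase luminescence was read 10 min after reagent addition.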
# Potency is read from the fitted curve at half-maximal effect; tags tell the direction and shape of the fitted curve.
SMILES,"activation, negative = inhibition",Potency
O=C(CNC(=O)c1ccc2c(c1)OCCO2)N/N=C/c1ccc([N+](=O)[O-])cc1,inactive: 1.71%,–
CCOc1ccc(CC(=O)Nc2c3c(nn2C(C)(C)C)CS(=O)(=O)C3)cc1,inactive: 0.171%,–
COc1ccccc1OCc1nc2ccccc2[nH]1,–,active: 2000 nM
CN(C)c1ccc(C(=O)Nc2cccc(S(=O)(=O)N3CCCC3)c2)cc1,–,"inconclusive [activator, single point]"
O=C(NCc1ccccc1)C1CCCN(c2cnccn2)C1 (configuration not stated),inactive: -0.215%,–
Cc1ccc(S(=O)(=O)N2CCN(C(C)C(=O)N3CCCc4ccccc43)CC2)cc1 (configuration not stated),inactive: 1.73%,–
CN1CCc2c(sc3c2C(=O)NC(c2ccccn2)N3)C1 (configuration not stated),inactive: 8.11%,–
O=C(Nc1nc(-c2cccs2)cs1)c1ccco1,–,active: 3160 nM
O=C(Nc1ccccn1)C(=O)Nc1ccccn1,–,active: 1260 nM
Clc1c(CSc2nc3ccccc3o2)nc2sccn12,–,active: 2000 nM
CCCC(=O)n1nc(-c2ccc(C)cc2)nc1NCc1ccco1,–,"inconclusive [activator, partial curve]"
Cc1sc2ncn(CC(=O)N3CCN(c4ccccn4)CC3)c(=O)c2c1S(=O)(=O)N1CCC(C)CC1,–,"inconclusive [activator, single point]"
CN=c1scc(C)n1/N=C/c1ccc(O)cc1,–,active: 2240 nM
O=C(NCC1CCN(S(=O)(=O)c2ccccc2)CC1)Nc1ccc(F)cc1F,inactive: -1.54%,–
CCOc1ccc(NC(=O)CN(C)C(=O)c2ccc(=O)[nH]c2)cc1OCC,–,"inconclusive [activator, partial curve]"
COc1ccc(C(=O)/C=C/c2ccccc2F)c(OC(=O)c2ccc([N+](=O)[O-])cc2)c1,–,"inconclusive [activator, single point]"
C/C(=N/NC(=O)c1ccco1)c1ccc(Br)s1,–,"inconclusive [activator, single point]"
CCN1CCc2c(sc(NC(=O)C3COc4ccccc4O3)c2C(N)=O)C1 (configuration not stated),–,"inconclusive [activator, partial curve]"
Cc1cc(C)n(-c2ccc(C(=O)Nc3ccc4c(c3)OCCO4)cc2)n1,–,"inconclusive [activator, single point]"
O=C(NCC1CCCO1)c1c(O)c2c([nH]c1=O)CCCC2 (configuration not stated),–,"inconclusive [activator, partial curve]"
O=c1c(-c2ccc(Cl)cc2)cnc2n1CCS2,–,"inconclusive [activator, partial curve]"
CCCc1cc2c(=O)c(-c3ccccn3)coc2cc1OC,–,active: 1580 nM
CCOc1ccc(NC(=O)c2ccc3snnc3c2)cc1,–,"inconclusive [activator, single point]"
CCOc1ccc(C(=O)Nc2cccc(C(=O)O)c2C)cc1Cl,–,"inconclusive [activator, partial curve]"
COc1ccc(-c2csc3nc(-c4ccccc4)oc(=O)c23)cc1OC,inactive: -19.6%,–
CC(=O)c1c(C)[nH]c(C(=O)Nc2ccc(Cl)c(S(=O)(=O)N(C)C)c2)c1C,–,active: 3160 nM

SMILES,"activation, negative = inhibition",Potency
COc1ccccc1C(=O)NNC(=O)c1ccc(F)cc1,–,"inconclusive [activator, single point]"
CCOC(=O)c1c(C)[nH]c(C)c1S(=O)(=O)N(C)CC(=O)NCc1cccc(Br)c1,inactive: -2.48%,–
Cn1c(=O)c2c([nH]c(=S)n2Cc2ccc(Cl)cc2)n(C)c1=O,inactive: 4.55%,–
Cc1nn(-c2nc3ccccc3[nH]2)c(N)c1-c1ccc(Cl)cc1,–,active: 3550 nM
Cc1c(NC(=O)c2cc(-n3cnnc3)ccc2Cl)cccc1-c1nc2ccccc2s1,–,active: 3550 nM
CS(=O)(=O)NCc1nnc(SCc2ccc(C(F)(F)F)cc2)o1,inactive: -6.83%,–
Cc1cccc(/C(N)=N/OC(=O)c2cccs2)c1,–,active: 1260 nM
CC(=O)Nc1cccc(NC(=O)c2cc3ccccc3o2)c1,–,"inconclusive [activator, single point]"
O=C(CNC(=O)c1ccc2c(c1)OCCO2)N/N=C/c1ccco1,inactive: -8.81%,–
Cc1ccc(NC2=C(N3CCOCC3)C(=O)c3ccccc3C2=O)cc1,inactive: -1.46%,–
Cc1ccc2c(CN3CCN(CCO)CC3)cc(=O)oc2c1,–,"inconclusive [activator, single point]"
O=C(NCCCN1CCOCC1)c1ccc(Sc2cccc(Cl)c2)c([N+](=O)[O-])c1,–,"inconclusive [activator, single point]"
C/C(NC(=O)c1cccs1)=C1\C(=O)C[C@@H]2[C@H]1C2(C)C,–,"inconclusive [activator, partial curve]"
Cc1ccc(C(=O)N/C(=C\c2ccccc2)C(=O)NCCN2CCOCC2)cc1,inactive: 2.33%,–
O=C(Nc1ccc(Cl)cc1)c1cccc(NC2=NC3CS(=O)(=O)CC3S2)c1 (configuration not stated),inactive: -1.09%,–
COc1ccc(OC)c(N(CC(=O)N2CCCC2)S(=O)(=O)c2ccc(C)cc2)c1,inactive: 0.908%,–
Cc1ccc(-c2ccc(/C=C(\C#N)C(N)=S)n2C)cc1,–,"inconclusive [activator, partial curve]"
CCOc1ccc(-c2nnc(SCC(=O)N3CCNC3=O)o2)cc1,–,active: 2000 nM
COCCn1c(C)cc(C2=NNC(=Nc3ccccc3)SC2)c1C,–,active: 398 nM
Cc1cnc(NC(=O)CSc2nnc(-c3ccccc3)o2)s1,–,active: 2000 nM
CCOc1ccc(/C=C2\SC(=O)N(CCNC(=O)CN3C(=O)NC4(CCCC4)C3=O)C2=O)cc1OC,inactive: -5.44%,–
Cc1ccc(-c2nn(-c3ccccc3)cc2C=O)o1,–,"inconclusive [activator, single point]"
Cc1cc(/C=C\c2ccccc2)nc2ccccc12,–,"inconclusive [activator, single point]"
COc1ccc(NC(=S)c2ccc3ccccc3n2)cc1,–,active: 3980 nM
COc1cc(C(=O)Nc2cc(-c3cn4cccnc4n3)ccc2C)cc(OC)c1OC,–,"inconclusive [activator, single point]"
O=C(c1ccc(Cn2c(=O)[nH]c3ccccc3c2=O)cc1)N1CCN(c2ccc(F)cc2)CC1,inactive: -1.72%,–

# From PubChem BioAssay AID485297 (National Center for Advancing Translational Sciences (NCATS), 2010)
